The values that follow come from the supplement of paper PMC4723716.

SMILES strings stand for the structures. ± gives the standard deviation of the averaged measurements. Whole data set: some 3,600 compounds, median “viability index relative to DMSO control” near 0.81, cut for the lowest 2% near 0.13. This is one part of the list.
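Also: 384-well serum-free SaLSSA: MitoTracker Red CMXRos staining with saponin lysis, high-content imaging, treated-well particle count divided by plate-mean count of DMSO wells.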

The test system of the assay is Plasmodium falciparum NF54 stage V gametocytes. As to the kind of experiment: viability index relative to DMSO control (fraction); higher = less gametocyte killing. The following applies: 1.25 µM, incubation time: 72 h.
On to `O=C(CN1CCC(NC(=O)c2cccc(F)c2)CC1)NC1CC1`, for which the viability index turned out to be 0.837. `O=[N+]([O-])c1cc(C(F)(F)F)ccc1N1CCCN(C(=S)Nc2ccccc2)CC1`: the viability index was 0.166. For `COc1cccc(Nc2nc(NCC3CCCO3)c3ccccc3n2)c1` (stereo not given) the value was 0.736. For `N#Cc1ccccc1N1CCCCC1` the value was 0.759; for `Cc1ccc(NC(=O)c2cc(C(=O)c3cc(Cl)ccc3O)cn(-c3ccc(C)cc3C)c2=O)c(C)c1`, 0.767; for `CCOC(=O)c1c(NC(=O)c2ccccc2)sc2c(O)c(CN(CC)CC)ccc12`, 0.223. For `CC[n+]1c(C=C2Sc3ccc(C)cc3N2CCO)ccc2ccccc21` the value was 0.861; for `Cc1ccc(Cn2c(=N)n(CC(O)c3ccc(Cl)c(Cl)c3)c3ccccc32)cc1` (stereo not given), 0.168. As for `C(=NNc1nc2ccccc2[nH]1)c1cccc(Oc2ccccc2)c1`, the viability index came out at 0.711.

In turn, `CN1CCc2c(sc3nc(SCC(=O)NCCc4ccccc4)n(-c4ccc(Cl)cc4)c(=O)c23)C1` came in with a viability index of 0.771. `CC[n+]1c(SC)ccc2cc(OC)ccc21` displayed a viability index of 0.681. The result for `COc1ccc(C2CC(=O)C3=C(C2)NC(C)=C(C(=O)OC2CCCC2)C3c2ccc(SC)cc2)cc1OC` (stereo not given) reads 0.842; that for `CC(=O)N1c2ccccc2C(C)(c2ccc(Br)cc2)CC1(C)C` (stereo not given), 0.938; that for `Clc1ccc(-c2c[n+](Cc3ccc(Cl)c(Cl)c3)c3n2CCC3)cc1`, 0.709. For `CCN1C(=Cc2[se]c3ccccc3[n+]2CC)C=Cc2cc(OC)ccc21` the value was 1.01. Compound `CCC(=O)N1CCc2cc(Br)cc(S(=O)(=O)N3CCN(CC)CC3)c21` yielded a viability index of 1.06.

Compound `NNC(=O)C1CCCN1S(=O)(=O)c1ccc(Cl)cc1` (stereo not given) returned a viability index of 1.2. The result for `CCCCN1C(=Cc2cccc[n+]2C)Sc2cc(NC(C)=O)ccc21` reads 0.691. Compound `CCCCc1ccc(Nc2ncnc3sc4c(c23)CCCC4)cc1` registered a viability index of 1.06.

`COc1ccc(C=NNc2cc(C)nc3ccccc23)cc1` yielded a viability index of 0.946. `CCCN1CCc2c(sc3nc(SC)n(-c4ccccc4)c(=O)c23)C1`: the viability index came out at 0.888. The result for `CCCCN(CCCC)S(=O)(=O)c1ccc(NC(=O)c2ccco2)cc1` reads 0.669.

For `CC[n+]1c(C=CN(C)C)sc2ccccc21`, the viability index is 0.859. For `COC(=O)C1=CNC=C(C(=O)OC)C1c1ccc(Cl)c(Cl)c1` the value was 0.849; for `COc1ccc(C2CC(=O)C3=C(C2)NC(C)=C(C(=O)OC2CCCC2)C3c2ccc([N+](=O)[O-])cc2)cc1OC` (stereo not given), 0.344; for `O=C(CCl)Nc1ccc(S(=O)(=O)OCC(F)(F)C(F)F)cc1`, 0.628. For `CCOc1ccc(C(=O)C[N+]2=C(C)c3ccc(C)n3CC2)cc1` the value was 0.742; for `Oc1ccccc1C=NNc1nnc2c3ccccc3n(Cc3ccccc3)c2n1`, 0.355; for `CCOC(=O)c1[nH]c2ccccc2c1N=NN(C)C`, 0.663. The result for `C[C@H](Nc1cncc(-c2ccc(Cl)cc2)n1)c1ccccc1` reads 0.804. Compound `Cc1ncc(CN2CCC(C(=O)Nc3ccc(-c4nc5ccccc5o4)cc3)CC2)s1` registered a viability index of 0.779. Regarding `O=C(CSc1cn(CCNC(=O)c2ccc(F)cc2)c2ccccc12)Nc1ccccc1F`, the viability index is 1.15. For `O=[N+]([O-])c1ccc(S(=O)(=O)N2CCN(C(=S)NCc3ccccc3)CC2)cc1` the value was 0.163; for `Oc1ccccc1-c1nc2ncccn2c1Nc1cccc(C(F)(F)F)c1`, 0.924. On to `Brc1ccc(Nc2nc(NCc3ccco3)c3ccccc3n2)cc1`, for which the viability index was 0.601. For `CCOCCCNc1nc2cc(OC)c(OC)cc2c2nc(-c3ccccc3)nn12` the value was 0.675. For `Cc1cccc(N2C(N)=NC(N)=NC2(C)C)c1` the value was 1.07; for `CCOc1ccc(C(=O)C(C)[n+]2cc(-c3ccc(OC)cc3)n3c2CCC3)cc1` (stereo not given), 1; for `CCOc1ccc(C2C(=O)N(C3CCCCC3)CC(=O)N2Cc2ccc(F)cc2)cc1OC` (stereo not given), 0.66. For `FC(F)(F)c1cccc(NC(=S)N2CCCC2c2ccccc2Cl)c1` (stereo not given) the value was 0.536; for `CCOC(=O)c1cnc2c(C)cc(Cl)cc2c1Nc1ccc(OC)c(OC)c1`, 0.697; for `CCCCOc1cccc(C(=O)N(Cc2cccs2)c2ccc(OC)cc2)c1`, 0.53. Take `CN(CCCNc1ccnc2cc(Cl)ccc12)C(=O)c1ccc(C(F)(F)F)cc1`: the viability index is 0.72. The result for `CCC(=O)NNc1cc(N2CCCC2)nc(N2CCCC2)n1` reads 0.928.

`Nc1c(C(=O)Nc2ccc(F)cc2)sc2nc3c(c(-c4cccs4)c12)CCCC3` had a viability index of 0.768.

The compound `O=C(CC1N=C2c3ccccc3N=C(SCc3cccc(F)c3)N2C1=O)NCc1cccs1` (stereo not given) gave a viability index of 0.667. For `CCc1nc(N)nc(N)c1-c1ccc(Cl)cc1` the value was 0.462; for `Cc1cc(C=C2SC(=Nc3ccccc3)NC2=O)c(C)n1-c1cccc([N+](=O)[O-])c1`, 0.479; for `COc1ccc2c(c1)c(C)cc[n+]2Cc1ccccc1`, 0.828. The compound `N=c1c2c(n(Cc3ccc(Cl)cc3)c3c1CCC3)CCC2` displayed a viability index of 0.493.

On to `COc1ccc(CCN2C(=O)N(CC(C)C)C(=O)C23CCN(Cc2ccccc2O)CC3)cc1`, for which the viability index was 0.952. The result for `CCC(C)(C)c1ccc(Oc2ccc(NC(=O)c3ccc([N+](=O)[O-])o3)cc2)cc1` reads 0.362; that for `c1ccc([B-](c2ccccc2)(c2ccccc2)c2ccccc2)cc1`, 0.695 ± 0.011; that for `CCN1CCN(Cc2c(O)ccc3c(=O)c(Oc4cc(C)cc(C)c4)c(C(F)(F)F)oc23)CC1`, 0.606. For `CCOc1ccc2ncc(S(=O)(=O)c3ccc(OC)cc3)c(N3CCN(C)CC3)c2c1` the value was 0.855; for `CCC(C)NC(=O)c1nn(-c2cccc(OC)c2)c(=O)c2ccccc12` (stereo not given), 1.01; for `O=c1c(=Cc2ccc(-c3ccc([N+](=O)[O-])cc3Cl)o2)sc2nc3ccccc3n12`, 0.699. The result for `CN1C(=O)N(C)C2(c3ccccc3)NN3C(=NC12c1ccccc1)SC1=C3C(=O)c2ccccc2C1=O` (stereo not given) reads 0.0309; that for `CCc1cc2c(Nc3ccncc3)ncnc2s1`, 0.812. Compound `Cc1ccc(-[n+]2c(-c3ccccc3)cn3c2CCCCC3)cc1` gave a viability index of 0.812.

For `CC[n+]1c(C=Cc2ccc(OC)cc2)ccc2ccccc21`, the viability index came out at 0.415. For `COc1cc(OC)c(NC(=O)C2c3ccccc3C(=O)N(C)C2c2ccc(OC)c(OC)c2)cc1Cl` (stereo not given) the value was 0.398. Compound `COc1ccc(C2C(C(=O)Nc3cccc(Cl)c3)c3ccccc3C(=O)N2C2CCCCC2)cc1` (stereo not given) gave a viability index of 0.719. The result for `c1ccc(C[n+]2ccc(-c3nc4ccccc4s3)cc2)cc1` reads 0.732. The result for `COc1ccc(NC(=O)c2cc3cc(C4(O)CCN(Cc5cc6ccccc6[nH]5)CC4)ccc3o2)cc1` reads 0.856. For `O=C(Nc1ccc(-c2nc3cc(NC(=O)C(c4ccccc4)c4ccccc4)ccc3[nH]2)cc1)C(c1ccccc1)c1ccccc1` the value was 0.908; for `COC(=O)c1c(NC(=O)c2ccc(S(=O)(=O)N3CCOCC3)cc2)sc2c1CCN(C(C)=O)C2`, 0.76; for `COc1ccc(C2N(Cc3ccccc3)c3ccccc3N2Cc2ccccc2)cc1`, 0.963.

The compound `O=C(CN(CCN1CCOCC1)S(=O)(=O)c1ccccn1)N1CCN(C(c2ccccc2)c2ccccc2)CC1` displayed a viability index of 0.637. For `COc1cc(NC(=O)Cc2ccccc2OC)cc(OC)c1` the value was 0.873; for `COc1ccc(-c2cc(C(F)(F)F)n3ncc(C(=O)Nc4cccc(Cl)c4Cl)c3n2)cc1OC`, 0.783; for `COc1ccc(C2CC(=O)C3=C(C2)NC(C)=C(C(=O)OC2CCCC2)C3c2ccc(F)cc2)cc1OC` (stereo not given), 0.382. The result for `OCCCCCCCCCCC[n+]1ccccc1` reads 0.779; that for `CCC(=O)N1CCc2cc(S(=O)(=O)N3CCN(c4cccc(C(F)(F)F)c4)CC3)ccc21`, 0.932; that for `COCCn1nnnc1C(c1cc2cc3c(cc2[nH]c1=O)OCCO3)N1CCC(O)CC1` (stereo not given), 0.884. `O=C(NCC1(c2ccccc2)CCCC1)C(=O)Nc1nncs1` yielded a viability index of 1.16. As to `O=C(Nc1cccc(OC(=O)c2ccc([N+](=O)[O-])cc2)c1)c1ccc([N+](=O)[O-])cc1`, the viability index was determined as 0.842. As to `COc1cc(C2CC(=O)NC(C)=C2C(=O)OC(C)C)c(OC)cc1Br` (stereo not given), the viability index came to 0.718.

Regarding `COc1ccc2ccccc2c1C1NC(SCc2ccc(F)cc2)=NC(C)=C1C(C)=O` (stereo not given), the viability index is 0.679. As for `CCOC(=O)C1=C(C)NC2=C(C(=O)CC(c3ccc(Cl)cc3)C2)C1c1ccccc1Cl` (stereo not given), the viability index is 0.774. `Cc1cc(N2CCN(CC=Cc3ccccc3)CC2)n2c(nc3ccccc32)c1C#N` had a viability index of 0.703. For `COc1ccc(S(=O)(=O)ON=C2C=C(C(C)C)C(=O)C=C2C)cc1` the value was 0.584. For `CCN(c1ccc(OC)cc1)S(=O)(=O)c1ccc(C)cc1` the value was 0.857. Take `CCN(CC)S(=O)(=O)c1cc(C(=O)O)ccc1Cl`: the viability index is 0.971. For `CCOC(=O)c1nnn(-c2nonc2N)c1-c1ccc(C)cc1` the value was 0.618. The result for `O=C(Nc1ccon1)c1cc(-c2cccnc2)nc2ccc(Br)cc12` reads 0.78; that for `CCOC(=O)C1=C(C)N(c2ccc(OCC)cc2)C(=O)C1=Cc1ccc(C(C)C)cc1`, 0.475. As for `COc1ccc2nc(C)cc(Nc3ccc(Oc4ccc(Cl)cc4)c(Cl)c3)c2c1`, the viability index came to 0.54. The result for `Cc1cc(C)cc(Nc2cc(C)nc3nc(C)nn23)c1` reads 1.12; that for `COCCOC(=O)C1=C(C)NC2=C(C(=O)CC(c3ccc(OC)c(OC)c3)C2)C1c1cccc(Cl)c1Cl` (stereo not given), 0.857.
